Hit rate of the full screen: of about 46,000 compounds, about 60 (0.1%) were called active. Another 3% or so got no clear call; they are omitted. The call rests on the fitted dose curve; in most records, active means well fitted inhibition curve with a large enough effect; inconclusive means small, poorly fitted or top-dose-only effect; inactive means no such curve, though single readings can be large or run the other way. The list shows a part of the results.

These results are taken from PubChem BioAssay AID1963576 (National Center for Advancing Translational Sciences (NCATS), 2024).

This test in a line: Primary qHTS assay for Inhibitors of ovarian cancer metastasis using an organotypic tumor microenvironment (TME) model. Further: nearly all actives have a fitted effect of over 65% in size.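 On activity change, negative = inhibition: plate controls were DMSO wells for no effect and tomatine positive control wells for full effect.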 The conditions noted are these: SKOV3ip1-GFP adhesion/invasion on 3D omental model, fluorescence; series mostly up to 45.8 µM; activity change, negative = inhibition: at the top concentration. The method, boiled down:
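A 3D layer of primary human omental fibroblasts, mesothelial cells, fibronectin and collagen I, grown 48 hr, received SKOV3ip1-GFP cells in serum-free medium plus compounds at 0.36-46 umol/L. After 2 hr RT and 16 hr 37 C, fixed adherent GFP cells were counted; normalized to DMSO and tomatine.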
For the molecule `CCCn1c(CCC(=O)Nc2ccccc2OC)nc2cccnc21`, the “activity change, negative = inhibition” value was inactive: 7.87%. Take `CCOc1ccc(S(=O)(=O)NCCc2sc3nc(-c4ccc(C)cc4)nn3c2C)cc1`: the “activity change, negative = inhibition” value was inactive: 8.34%. On the same count and under the same terms, the same measure for `Cc1cc(C)cc(-n2ccn(Cc3ccc(F)cc3)c(=O)c2=O)c1`: inactive: -2.3%. On to `Cc1ccc(-c2cn(-c3ccc(Cl)cc3)c(S(=O)(=O)CC(=O)Nc3ccccc3)n2)cc1`, for which the “activity change, negative = inhibition” value was inactive: -4.36%.

On to `COc1ccc(NC(=O)CC2C(=O)N(c3cccc(OC)c3)C(=O)N2Cc2ccc3c(c2)OCO3)cc1` (stereo unspecified), for which the “activity change, negative = inhibition” value was inactive: 1.88%. Consider `Cc1cc(C)cc(NC(=O)C2CCN(S(=O)(=O)c3cccc(-c4noc(C)n4)c3)CC2)c1`, for which the result was inactive. As to `COc1ccc(S(=O)(=O)c2nnn(-c3ccc(C)c(Cl)c3)c2C)cc1`, the result was inactive. Still for that read-out and setting: in the case of `Cc1cccc(NC(=O)C(=O)NCCc2csc(-c3ccc(C(F)(F)F)cc3)n2)c1C` it was “inactive”. With `O=C(CC1N=C2c3ccccc3N=C(SCC(=O)Nc3ccccc3F)N2C1=O)NCc1cccs1` (stereo unspecified), the “activity change, negative = inhibition” value is inactive: 19.1%. As to `Cc1ccc(CNC(=O)CCCN2C(=O)COc3ccc(C)cc32)cc1`, the “activity change, negative = inhibition” value is inactive: -3.8%. Turning to `CC1=Nc2cc(C(=O)NC(C)C)ccc2Sc2ccc(C)cc21`, the molecule was classed as inactive. Consider `Fc1ccc(Br)cc1C1C=C(c2ccc(Br)cc2)Nc2nnnn21` (stereo unspecified), for which the “activity change, negative = inhibition” value is inactive: 2.33%. For the molecule `CC1CCc2c(sc(NC(=O)c3cc(-c4ccc(F)cc4)on3)c2C(N)=O)C1` (stereo unspecified), the “activity change, negative = inhibition” value is inactive: 1.88%.

`Cc1ccc2sc(N(Cc3cccnc3)C(=O)C3COc4ccccc4O3)nc2c1C` (stereo unspecified): the “activity change, negative = inhibition” value was inactive: 18.4%. On to `Cc1ccc(NC(=O)c2c(NC(=O)c3ccccc3)sc3c2CCC3)cc1`, for which the “activity change, negative = inhibition” value was inactive: 1.59%. For `CCN(CC)CCNC(=O)c1ccc(-n2c(-c3ccccc3)cc3c2CCCC3)cc1`, the “activity change, negative = inhibition” value was inactive: -7.89%. For the molecule `COc1cccc(CNC(=O)CCCn2nc(C)c3c(C)n(-c4ccc(C)cc4)nc3c2=O)c1OC`, the “activity change, negative = inhibition” value is inactive: -28.9%. On the same count and under the same terms, in the case of `CC(C)Cn1c(=O)c2sccc2n2c(CCCC(=O)NC3CCCCC3)nnc12` it was inactive: -2.31%. For `CCc1ccc(CN(C(=O)c2cc(=O)c3ccc(C)cc3o2)C2CCS(=O)(=O)C2)cc1` (stereo unspecified), the “activity change, negative = inhibition” value is inactive: -9.59%. Take `Cc1ccc(CN(Cc2ccco2)c2cnc(S(C)(=O)=O)nc2C(=O)Nc2ccccc2Br)o1`: the “activity change, negative = inhibition” value is inactive: -12.3%. `Cc1cc(C)cc(NC(=O)Cn2cc(C(=O)c3ccccc3)c(=O)c3ccc(C)nc32)c1`: the “activity change, negative = inhibition” value was inactive: -1.77%. As to `Cn1c(=O)c2nc(SCC(=O)Nc3ccc(Cl)c(Cl)c3)n(C)c2n(C)c1=O`, the “activity change, negative = inhibition” value is inactive: 8.85%. Consider `CCCCc1ccc(NC(=O)C2(C)Cc3ccccc3C(=O)O2)cc1` (stereo unspecified), for which the “activity change, negative = inhibition” value is inactive: -7.53%. Turning to `COc1ccc(N(C)C(=O)c2cc(S(=O)(=O)N3CCc4ccccc43)cn2C)c(OC)c1`, the “activity change, negative = inhibition” value was inactive: -12.6%. Turning to `Cc1cccc(-c2nc(C(N)=O)c3c(n2)n(-c2ccc4c(c2)OCO4)c(=O)n3C)c1`, the “activity change, negative = inhibition” value was inactive: -11.6%. For the molecule `CCc1ccc(C2CC(=O)Oc3c2c(=O)n(C)c2ccccc32)cc1` (stereo unspecified), the molecule was classed as inactive. In the case of `COc1ccc(CNC(=O)Cn2nc(C)c3c(C)n(-c4ccccc4)nc3c2=O)cc1OC`, the “activity change, negative = inhibition” value was inactive: -1.04%.

Regarding `Cc1nn(CC(=O)N2CCCCC2)c(=O)c2cc3occc3n12`, the outcome was inactive. With `O=C(Nc1ccc(Cl)cc1)c1cc2c(-c3ccccc3)nn(-c3ccccc3)c2s1`, the “activity change, negative = inhibition” value was inactive: 1.75%.

Take `Cc1ccc(Cl)cc1NC(=O)CCS(=O)(=O)c1ccc2c(c1)n(C)c(=O)c(=O)n2C`: the outcome was inactive. Same read-out and setting: the same measure for `Cc1ccc(-n2c3nc(=O)[nH]c(=O)c-3cc3c(C)nn(-c4ccccc4)c32)c(C)c1`: “inactive”; for `CCOC(=O)CSc1nc2ccc(NC(=O)COc3ccccc3C)cc2s1`: “inactive”. On to `COC(=O)CN1C(=O)C(O)(CC(=O)c2ccc(F)cc2)c2ccccc21` (stereo unspecified), for which the “activity change, negative = inhibition” value was inactive: 5.37%. On the same count and under the same terms, the same measure for `CC(C)Cn1cc(NC(=O)NCc2ccccc2Cl)c2ccccc2c1=O`: inactive: -11.8%; for `CC(NC(=O)C1CCN(S(=O)(=O)c2ccc3nc4c(c(C(=O)O)c3c2)CCCC4)CC1)c1ccccc1` (stereo unspecified): inactive: -0.634%; for `CCc1ccc(-n2c(SCc3cccc(F)c3)nc3[nH]ncc3c2=O)cc1`: inactive: 7.35%.

With `COc1ccc(-c2cc(C(=O)Nc3sc4c(c3C#N)CCCC4)no2)cc1OC`, the “activity change, negative = inhibition” value was inactive: -3.61%. Still for that read-out and setting: in the case of `COc1cccc(NC(=O)c2ccc3nc(Cc4ccccc4)oc3c2)c1` it was inactive: -0.243%; in that of `Cc1ccc(NC(=O)CCS(=O)(=O)c2cc(Br)cc3c2N(C(=O)C2CC2)CC3)cc1`, inactive: 7.23%. As for `O=C(CSc1oc(-c2ccccc2)nc1S(=O)(=O)c1ccccc1)c1ccccc1`, the “activity change, negative = inhibition” value is inactive: 4.52%. The same measure, in the same setting: the same measure for `COC(=O)c1cc(NS(=O)(=O)c2cc(Br)cc3c2N(C(C)=O)CC3)cc(C(=O)OC)c1`: inactive: 2.3%. Turning to `COCCn1c(=N)c(C(=O)NCc2ccco2)cc2c(=O)n3cc(C)ccc3nc21`, the result was inactive.

Regarding `Cc1ccc(-n2c(-c3ccco3)nc3c(cnn3-c3ccccc3C)c2=O)cc1`, the “activity change, negative = inhibition” value is inactive: 13.1%.

For `CCn1c(=O)cc(OCC(=O)Nc2ccc(C)c(F)c2)c2ccccc21`, the “activity change, negative = inhibition” value is inactive: -5.54%. On to `Cc1ccc(Cn2c(SCc3ccc(C(=O)NC4CCCC4)cc3)nc3ccncc32)cc1`, for which the “activity change, negative = inhibition” value was inactive: -10.1%.

Regarding `Cc1ccc2nc(NCCc3ccccc3)c3nncn3c2c1`, the “activity change, negative = inhibition” value was inactive: -5.48%. Regarding `Cc1nn(-c2ccccc2)c(OC(=O)C(C)(C)C)c1Sc1ccccc1`, the molecule was called inactive.

Regarding `COc1ccc(-c2ccc(CCC(=O)O)n2CC(=O)Nc2cccc(C(F)(F)F)c2)cc1`, the “activity change, negative = inhibition” value was inactive: 2.75%. Turning to `CCc1ccc(-n2c(=O)c3cccnc3n2CC(=O)Nc2ccccc2C(F)(F)F)cc1`, the molecule was classed as inactive. For the molecule `COc1ccc(-c2cn3c(n2)sc2cc(C(=O)Nc4cc(OC)cc(OC)c4)ccc23)cc1`, the molecule was called inactive.

In the case of `Cc1cccc(-n2c(=O)c3c(c4cc(C)ccc4n3C)n(CC(=O)Nc3ccc(C)cc3C)c2=O)c1`, the outcome was inactive.

On to `Cc1ccc(C(=O)Nc2ccc3oc(-c4ccncc4)nc3c2)c(Cl)c1`, for which the “activity change, negative = inhibition” value is inactive: 1.69%. Turning to `Cc1nnc(NC(=O)C(=O)c2cc(C)n(-c3ccc(C)c(C)c3)c2C)s1`, the “activity change, negative = inhibition” value is inactive: 2.15%.

As for `CCCC(=O)c1ccc(OC(=O)c2c(-c3ccccc3Cl)noc2C)cc1`, the “activity change, negative = inhibition” value was inactive: 2.31%. On to `COc1ccccc1C(=O)NC1=NC(c2ccc(Br)cc2)CC(=O)N1` (stereo unspecified), for which the “activity change, negative = inhibition” value was inactive: 1.47%.

Take `COc1ccccc1-c1nc(CNC(=O)Nc2ccccc2)c(C)o1`: the “activity change, negative = inhibition” value is inactive: 4.61%. Regarding `OCCCc1nc2n(n1)C(c1cccc(Cl)c1)C=C(c1ccccc1)N2` (stereo unspecified), the “activity change, negative = inhibition” value is inactive: 9.96%. With `CCOc1ccc(-c2cc(C(=O)NCCc3ccc(Cl)cc3)c3ccccc3n2)cc1`, the “activity change, negative = inhibition” value was inactive: -11.5%. The same measure, in the same setting: the same measure for `CCOC(=O)c1c(NC(C)=O)c2c3c(sc2n1Cc1nc(-c2cccc(C)c2)oc1C)CCCC3`: inactive: 4.44%. Take `COc1ccc(N2CCN(C(=O)c3ccc4c(Cl)c5c(nc4c3)CCCC5)CC2)cc1`: the result was inactive.

With `CCCc1cc(C(=O)Nc2c(C)nn(Cc3ccc(Cl)c(Cl)c3)c2C)no1`, the “activity change, negative = inhibition” value is inactive: -8.45%.
